According to PubChem BioAssay AID360 (National Center for Advancing Translational Sciences (NCATS), 2006):
The whole screen tested about 48,000 compounds, of which about 550 (1.1%) were called active. Another 4% or so got no clear call; they are omitted. No stated cut-off is given here; in the data, active means potency below about 15 µM; inconclusive means mostly about 16 µM to 33 µM; inactive means weaker than that. The list shows a part of the results.

What follows are molecules tested against Lysosomal acid glucosylceramidase (Homo sapiens) (UniProt P04062) (assay: Glucocerebrosidase). Conditions: purified enzyme, resorufin glucoside fluorescence (screen aimed at inhibitors), 20 min.
Chain of UniProt P04062 (P04062 whole entry, looked up): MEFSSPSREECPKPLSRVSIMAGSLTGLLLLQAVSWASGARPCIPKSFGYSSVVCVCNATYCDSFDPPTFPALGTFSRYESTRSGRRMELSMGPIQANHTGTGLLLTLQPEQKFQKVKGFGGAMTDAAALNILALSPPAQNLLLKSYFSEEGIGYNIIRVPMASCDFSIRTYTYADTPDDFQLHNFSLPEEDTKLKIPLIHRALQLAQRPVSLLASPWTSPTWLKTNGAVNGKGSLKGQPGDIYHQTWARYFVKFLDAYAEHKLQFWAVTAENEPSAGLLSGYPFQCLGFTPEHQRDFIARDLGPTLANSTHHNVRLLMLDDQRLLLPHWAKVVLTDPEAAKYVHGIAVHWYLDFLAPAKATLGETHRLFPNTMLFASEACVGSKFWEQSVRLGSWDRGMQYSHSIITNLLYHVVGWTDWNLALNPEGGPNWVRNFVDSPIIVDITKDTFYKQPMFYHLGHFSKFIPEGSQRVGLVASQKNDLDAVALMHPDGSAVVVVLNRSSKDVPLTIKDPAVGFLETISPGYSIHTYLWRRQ
Procedure, shortened: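 Compounds titrated against 0.2 nM normal enzyme, 30 uM resorufin beta-D-glucopyranoside substrate, citrate/phosphate buffer with taurocholate and tween-20, pH 5.9. Reaction ran 20 min at room temperature; fluorescence (Ex 548/Em 600) gave AC50.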
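Further: the screen sought inhibitors.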
Potency means the concentration at half of the fitted maximal effect.

Potency, inactive:
Cn1c(=O)c2c(nc(N3CCCCC3)n2CCSc2nc3ccccc3o2)n(C)c1=O > 76.9 µM, COc1cccc(NC(=O)c2cccc(OC)c2OC)c1 > 76.9 µM, Cc1noc(C)c1COC(=O)COc1cccc2c1OC(C)(C)C2 > 76.9 µM, CC(=O)c1c(C)[nH]c(C(=O)NCCc2ccccc2)c1C > 76.9 µM, Cc1cc2n(n1)SC(Nc1ccccc1)N2 (stereo not drawn) > 76.9 µM, O=C(COC(=O)CCS(=O)(=O)c1ccc(Cl)cc1)Nc1ncc(Cl)cc1Cl > 76.9 µM, COC(=O)N(C)CCCC1(C)C(=O)N(C)c2ccc(O)cc21 (stereo not drawn) > 76.9 µM, CC(=O)c1cc2c(cc1NC(=O)c1cnc(C)cn1)OCO2 > 76.9 µM, COc1ccc(C2N=C(N)N=C(N)N2c2ccccc2)cc1OC (stereo not drawn) > 76.9 µM, COc1ccc(NC(=O)C(c2ccccc2)N(C)C(=O)c2cnccn2)cc1 (stereo not drawn) > 76.9 µM, COCC(=O)Nc1sc2c(c1C(=O)OC)CCC(C)C2 (stereo not drawn) > 76.9 µM, COc1ccc(Cl)c(Cn2c(NCc3ccccn3)nc3c2c(=O)n(C)c(=O)n3C)c1 > 76.9 µM, COc1ccc(-n2c(C)cc(C(=O)COC(=O)Cn3cnc4ccccc43)c2C)cc1 > 76.9 µM, COc1ccc(S(=O)(=O)NC(CC(=O)NC2CCCC2)c2ccco2)cc1 (stereo not drawn) > 76.9 µM, CCOC(=O)C1CCCN(S(=O)(=O)c2ccc(OC)c3ccccc23)C1 (stereo not drawn) > 76.9 µM, COc1ccc(N(Cc2cc3ccc(C)cc3[nH]c2=O)C(=O)c2ccco2)cc1 > 76.9 µM, COc1ccc(Cn2c(CCC(=O)Nc3ccc(CC#N)cc3)nc3cccnc32)cc1 > 76.9 µM, COC(=O)C1CCN(C(=O)c2sc3nc(-c4ccc(F)cc4)cn3c2C)CC1, Cn1nc(C(=O)NCCN2CCOCC2)c2ccccc2c1=O > 76.9 µM, O=C(C1CCCN(S(=O)(=O)c2cccc3nsnc23)C1)N1CC=C(c2ccccc2)CC1 (stereo not drawn) > 76.9 µM, CCSc1nnc(-c2ccccc2N)c(=O)[nH]1 > 76.9 µM, COc1ccc(-c2cc(C(=O)N3CCN(Cc4ccccc4)CC3)no2)cc1OC > 76.9 µM, CC(C)(C)NC(=O)C(c1ccco1)N(C(=O)Cn1nnc(-c2ccc(F)cc2)n1)c1ccccc1 (stereo not drawn) > 76.9 µM, CCN(CC)CCOC(=O)c1c(C)oc2ccc(O)cc12 > 76.9 µM, CCN(CC)CCN1C(=O)C(=O)/C(=C(/O)c2cccc(OC)c2)C1c1ccccn1 (stereo not drawn) > 76.9 µM, COc1ccc(CNC(=O)Nc2cccs2)cc1OC > 76.9 µM, O=c1[nH]c(CN2CCN(CCO)CC2)nc2ccccc12 > 76.9 µM, O=C(NCc1ccccn1)c1cn(CCc2ccccc2)nn1 > 76.9 µM, COc1ccc(CN2CCN(C(=O)CC(C)C)CC2)c2ccccc12 > 76.9 µM, COCCOC(=O)C1=C(C)NC2=C(C(=O)CC(C)(C)C2)C1c1cccnc1 (stereo not drawn) > 76.9 µM, CCSc1nnc(NC(=O)c2nn(C(C)C)c(=O)c3ccccc23)s1 > 76.9 µM, CCC(O)c1cc2c(cc1NC(=O)c1cccs1)OCCO2 (stereo not drawn) > 76.9 µM, CCOC(=O)c1csc(NC(=O)CSc2nnnn2-c2ccc(OCC)cc2)n1 > 76.9 µM, CN(C)CCCn1c(N)c(C#N)c2nc(C#N)c(C#N)nc21 > 76.9 µM, CCN(CC)S(=O)(=O)c1ccc(/C(O)=C2/C(=O)C(=O)N(CCOC)C2c2ccccc2)cc1 (stereo not drawn) > 76.9 µM, CCN(CC)CCCNC(=O)C1CCN(C(=O)c2cc3sccc3n2Cc2ccc(F)cc2)CC1 > 76.9 µM, C=CCn1c(SC/C=C/c2ccccc2)nnc1-c1sc(N)nc1C > 76.9 µM, Cc1noc(C)c1S(=O)(=O)N1CCC(C(=O)NC2CCCc3ccccc32)CC1 (stereo not drawn) > 76.9 µM, O=C(N1CCOCC1)N1CCC(n2nnc3ccccc32)CC1 > 76.9 µM, Cc1ccc(Cn2c(NCCCn3ccnc3)nc3c2c(=O)n(C)c(=O)n3C)cc1 > 76.9 µM, CCOc1ccc(C2CC(=O)NC3=C2C(=O)CCC3)cc1 (stereo not drawn) > 76.9 µM, Cc1oc(-c2ccc(Cl)cc2)[n+]([O-])c1C > 76.9 µM, O=C(C1CCC1)N1CCc2cc(S(=O)(=O)N3CCN(c4ccccn4)CC3)ccc21 > 76.9 µM, CC(=O)N=c1ncn(CC(COC(C)=O)OC(C)=O)c2nc[nH]c12 (stereo not drawn) > 76.9 µM, CCN1C(=O)C(NC(C)=O)c2cc(OC)ccc21 (stereo not drawn) > 76.9 µM, CCCc1cc(=O)[nH]c(SCC(=O)N(C)Cc2ccccc2)n1 > 76.9 µM, Cc1ccc(S(=O)(=O)N2CCC(C(=O)N3CCC[C@H]3C(=O)NC3CCS(=O)(=O)C3)CC2)cc1 (stereo partly drawn) > 76.9 µM, O=C(Cc1c[nH]c2ccccc12)NCc1ccc2c(c1)OCO2 > 76.9 µM, COc1cc(S(=O)(=O)N2CCN3CCCC3C2)ccc1-n1cnnn1 (stereo not drawn) > 76.9 µM, COCCC(=O)NC12CC3CC(CC(C3)C1)C2 > 76.9 µM, Cc1nn(-c2ccccc2)c(CC(C)(C)C(=O)O)c1C(=O)O > 76.9 µM, O=C(CCN1CCCCCC1)Nc1ccc(F)cc1 > 76.9 µM, O=C(NCc1ccccc1)c1noc2c1CCCCC2 > 76.9 µM, COc1ccc(N2CCN(Cc3nc4c(c(=O)[nH]c(=O)n4C)n3CCCc3ccccc3)CC2)cc1 > 76.9 µM, CCOc1ccc2nc(NC(=O)C(NS(=O)(=O)c3cccs3)C(C)C)sc2c1 (stereo not drawn) > 76.9 µM, O=C(O)c1cccc(S(=O)(=O)Nc2ccc3oc(=O)sc3c2)c1 > 76.9 µM, COc1ccc(C2CC(c3cc(Br)ccc3F)n3nnnc3N2)cc1 (stereo not drawn) > 76.9 µM, COC(=O)c1oc2nc(C)cc(C)c2c1N > 76.9 µM, CCn1c(COc2ccccc2C)nnc1SCC(=O)OC > 76.9 µM, CCC(=O)N1CCc2cc(Br)cc(S(=O)(=O)C3(C(=O)OC)CC3)c21 > 76.9 µM, CC(C)(C)n1ncc2c(=O)n(CC(=O)NCc3ccccc3Cl)cnc21 > 76.9 µM, Cc1nnc(SCC(=O)N2CCC(c3noc4ccc(F)cc34)CC2)s1 > 76.9 µM, CCOc1cccc(/C(O)=C2/C(=O)C(=O)N(CCOC)C2c2ccncc2)c1 (stereo not drawn) > 76.9 µM, O=C(Cn1nnc(-c2ccccc2NC(=O)c2ccccc2F)n1)NCc1ccco1 > 76.9 µM, Cc1cc(C(=O)COc2ccc3ccc(=O)oc3c2)c(C)n1Cc1cccs1 > 76.9 µM, COc1ccc(C2C(C(=O)N3CCCC3)CC(=O)N2c2ccc(OC)cc2)cc1 (stereo not drawn) > 76.9 µM, COC(=O)C1CCN(S(=O)(=O)Cc2ccccc2)CC1 > 76.9 µM, Cc1cc(NC(=O)CSc2nnc(C3COc4ccccc4O3)o2)no1 (stereo not drawn), COc1ccc(C2/C(=C(/O)c3ccccc3)C(=O)C(=O)N2CCN2CCOCC2)c(OC)c1 (stereo not drawn) > 76.9 µM, Cc1ccccc1OCCC(=O)Nc1c(C)n(C)n(-c2ccccc2)c1=O > 76.9 µM, CN(Cc1ccccc1)C1CC(=O)N(c2ccc(C(=O)O)cc2)C1=O (stereo not drawn) > 76.9 µM, COC(=O)CSc1nc2c(c(=O)n(C)c(=O)n2C)n1CCCc1ccccc1 > 76.9 µM, COC(=O)c1ccccc1NC(=O)CN(C)S(=O)(=O)c1cc(C)ccc1OC > 76.9 µM, O=C(NCc1ccc2[nH]c3c(c2c1)CCCC3)N1CCOCC1 > 76.9 µM, COc1ccccc1CNC(=O)C(NC(=O)C1CCCCC1)C(C)C (stereo not drawn) > 76.9 µM, COc1ncnc(OC)c1NC(=O)c1ccc(F)cc1 > 76.9 µM, Cc1nc2nc(C)c(CCC(=O)N3CCOCC3)c(C)n2n1 > 76.9 µM, COc1ccc(-c2noc(CCC(=O)Nc3cccc(C)c3)n2)cc1 > 76.9 µM, COc1ccccc1CN1C(=O)CN(C2CCCC2)C(=O)C1c1ccc(F)cc1 (stereo not drawn) > 76.9 µM, CCn1c(CSc2nc(C)cc(C)n2)nnc1SCC(=O)Nc1nc(-c2ccccc2)cs1 > 76.9 µM, CCn1c(N)c(C(=O)Nc2ccccc2C(=O)OC)sc1=S > 76.9 µM, COc1ccc(OC)c(S(=O)(=O)N(C)CC(=O)N2CCN(c3ccccc3F)CC2)c1 > 76.9 µM, CCCn1c(C)cc(C(=O)CSc2nnc3n(CCC)c(=O)c4ccccc4n23)c1C > 76.9 µM, O=C(OCC(=O)N1CCCc2ccccc21)C1CCN(S(=O)(=O)c2cccs2)CC1 > 76.9 µM, CCCCCCN1Cc2ccccc2C1 > 76.9 µM, COc1ccc(CCNC(=O)C2CCN(S(=O)(=O)c3cnc[nH]3)CC2)cc1OC > 76.9 µM, CCN(CC)CCNC(=O)Cc1c(C(=O)O)n(C)c2ccccc12 > 76.9 µM, O=C(Oc1ccc2c(c1)OCO2)c1cccs1 > 76.9 µM
